In publication PMC12040169 (PLOS Biology, 2025):
Some of the results follow.

system: T1, C. trachomatis L2/434/Bu expressing GFP (CTL2-GFP); set-up: species or system HeLa; C. trachomatis total inclusion area by high-content imaging, normalised to DMSO; conditions: total inclusion area; 28.5 h, 10 µM; inhibitor
T1 construct: L2/434/Bu GFP intracellular growth in HeLa cells
Source text: In this process, we also complemented the assay described above with an imaging-based readout (Fig 1B). After measurements of bulk GFP and resorufin fluorescence, cells were fixed, stained with the DNA dye Hoechst, and imaged at a high-content imaging platform to detect chlamydial inclusions (GFP) and host cell nuclei (Hoechst). The total area and number of inclusions in individual wells and the number of nuclei then served as additional proxies for chlamydial growth and host cell viability. […] MICs were calculated as described above.

SMILES	% of control remaining
COc1cccc(CNC(=O)c2cc3c(nc2N)CCN(Cc2cccc(C)c2OC)C3)c1 [CBK285682]	79.6006
CCCn1nc(C)c(-c2cncn2CC(C)N2CCC(C)CC2)c1C (centres unmarked) [CBK281791]	78.7632
Cc1ccc(OC2(C(=O)N3CCCC3C(F)(F)F)CCNCC2)cc1 (centres unmarked) [CBK307226]	102.014
NCCSC1CC(=O)N(Cc2ccc(F)cc2)C1=O (centres unmarked) [CBK269025C]	60.8891
O=C1CC2(CCN(C(=O)c3ccccn3)CC2)Oc2ccc(Br)cc21 [CBK156443]	105.25
O=CN1CCc2c([nH]c3cc(F)ccc23)C12CCN(CCc1cccs1)CC2 [CBK040312]	91.3156
O=C(O)c1ccc(NC(=O)c2cn(-c3ccccc3)nc2-c2ccccc2)cc1 [CBK296120]	112.712
CN1CCN(c2nc(-c3cccc(F)c3)cnc2N)CC1 [CBK063433]	114.827
CC(=O)c1cc(-c2cccnc2)cs1 [CBK017637]	14.8287
Cn1c(=O)n(CC#N)c2ccccc21 [CBK025636]	21.2966
O=C(NCCc1c[nH]c2ccc(Cl)cc12)c1ccoc1 [CBK159782]	133.041
Cc1cn(CC(=O)N2CCC3(CCN(Cc4ccccc4)C3)C2)c(=O)[nH]c1=O (centres unmarked) [CBK136840]	83.819
Cc1ccc(NS(=O)(=O)c2cc(C(=O)Nc3cccc(N(C)S(C)(=O)=O)c3)ccc2C)c(C)c1 [CBK268220]	99.3192
Cc1cc(NC(=O)Cn2cc(Br)cn2)no1 [CBK305706]	99.0797
COc1ccc(CNC(=O)[C@H]2C=CCN2C(=O)C2CC2)cc1 [CBK282326]	79.9025
Nc1cccc(Oc2ccc3c(c2)C(=O)N(CCC(=O)O)C3=O)c1 [CBK287186]	115.683
Cc1cccc(-c2ncc(NC(=O)c3ccccn3)nc2-c2ccc(N)cc2)c1 [CBK036694]	121.394
Cn1c(=O)n(C)c2cc(S(=O)(=O)Nc3ccc(Cl)c(C(=O)O)c3)ccc21 [CBK299841]	85.4302
CCOc1nc2c(c(C(F)(F)F)n1)CC(C)C/C2=C\c1ccccc1 (centres unmarked) [CBK265800]	85.6305
O=C(/C=C/c1cccc([N+](=O)[O-])c1)Nc1ccc(Cl)c(-c2nc3ccccc3o2)c1 [CBK264610]	96.1614
C=CCn1c(C)c(C)n2c3c(=O)n(CCN4CCOCC4)c(=O)n(C)c3nc12 [CBK269778]	71.5688
CCCn1c(SCc2nc(N)nc(Nc3ccccc3CC)n2)n[nH]c1=O [CBK296966]	86.4356
CN(c1cccc(C#N)c1)C1CCN(c2ncnc3c2cnn3C)C1 (centres unmarked) [CBK304720]	83.6618
C[C@@H]1CN(C(=O)OCCc2cccs2)C[C@H](C)O1 [CBK200416]	51.8577
COc1ccc([C@]23CC[C@H](NC(=O)c4ccc(C(F)(F)F)c(F)c4)C[C@H]2CN(C)C3)cc1OC [CBK082743T]	96.0005
O=C(Nc1ccccc1Cl)N1CCN(CCN2CCOCC2)CC1 [CBK155824]	99.3189
CC(C)(C)NC(=O)Cn1cnc2c(cnn2-c2ccccc2)c1=O [CBK269586]	105.507

SMILES	% of control remaining
COCCNC(=O)c1ccc(-c2ccccc2OC)nc1N(C)C [CBK106052]	97.3942
COc1ccc(C)cc1N(CC(=O)Nc1ccc(F)c(F)c1)S(C)(=O)=O [CBK267006]	98.3938
COc1ccc(C(=O)C2=C(O)C(=O)N(CCCN(C)C)C2c2ccncc2)cc1C (centres unmarked) [CBK264871]	107.141
CC(=O)N1CCN(Cc2oc(C)cc(=O)c2O)CC1 [CBK288383]	103.811
O=C(O)C1CCN(C(=O)Cc2c[nH]c3ccccc23)CC1 [CBK202747]	57.7329
COc1ccc([C@@]23CC[C@@H](NC(=O)Nc4cccc(Br)c4)C[C@@H]2N(C)CC3)cc1OC [CBK038225T]	79.5354
O=C(O)CCc1nc2ccccc2n1C1CCCCC1 [CBK286961]	100.738
COc1ccc(CN2CCN(C(=O)NS(=O)(=O)c3ccc(C)cc3)CC2)cc1F [CBK297156]	85.0466
CNC(=O)c1sc2ccccc2c1C1CCN(Cc2cnn(-c3ccc(F)cc3)c2)C1 (centres unmarked) [CBK285882]	85.2021
CSCCC(NC(=O)c1ccc(S(=O)(=O)N2CC(C)OC(C)C2)cc1)C(=O)O (centres unmarked) [CBK297101]	83.8332
Cc1ccccc1OCCCNCCN1CCOCC1 [CBK268590C]	86.0689
FC(F)(F)c1csc(Nc2ccc(Cl)c(Cl)c2)n1 [CBK019093]	27.4597
Cc1noc(C)c1C(=O)N1CCc2ccccc2C1 [CBK200333]	103.813
CC1CCCN(C(=O)c2cc(S(=O)(=O)N3CCOCC3)ccc2Cl)C1 (centres unmarked) [CBK305012]	82.5866
CCc1cc2c(=O)c(-c3nc(C)cs3)c(C)oc2cc1OCc1ccc([N+](=O)[O-])cc1 [CBK268305]	92.9138
O=C(NCC1CCCO1)c1sc2ccccc2c1Cl (centres unmarked) [CBK058604]	99.9096
CC(C)(C)CC(=O)N1C[C@@H]2C[C@H](C1)c1ccc(NS(=O)(=O)c3cccs3)c(=O)n1C2 [CBK288708]	103.985
O=C(NC(Cc1cccs1)c1nccs1)C1CCOC1 (centres unmarked) [CBK285054]	107.128
CCOC(=O)C(C)NC(=O)c1ccc2nc(C)sc2c1 (centres unmarked) [CBK282508]	94.9161
Cc1noc(C)c1S(=O)(=O)N1CCOCC1c1cccc(F)c1 (centres unmarked) [CBK304171]	92.1203
Cc1nc(CN2CCC3(CC2)CN(S(C)(=O)=O)c2ccccc23)cs1 [CBK126687]	79.3371
Cn1ncnc1COc1ccc(S(=O)(=O)NC2CCCC2)cc1 [CBK306305]	31.0889
O=C(O)C[C@]1(C(=O)Nc2ccc(F)cc2)CC(/C=C/c2ccccc2)=NO1 [CBK286608]	98.0139
COc1cc(CN2CCC3(CC2)CN(C(=O)CO)c2ccccc23)cc(OC)c1OC [CBK131494]	76.5434
CC(C)(C)c1ccc(-c2cnc3ncccc3c2N)cc1 [CBK083684]	91.8464
O=C(O)c1cccc(CSc2nnc(Cc3ccccc3)[nH]2)c1 [CBK268029]	105.4
O=C1COc2ccccc2C/C=C/C[C@H]2CN(C(=O)CN3CCN(CCO)CC3)CC[C@H]2N1 [CBK292146]	75.6546

SMILES	% of control remaining
Cc1noc(C)c1Cc1ccc(C(=O)Nc2nc3ccccc3n2C)o1 [CBK299839]	100.57
CN(C)C(c1ccccc1)c1nnnn1C1CCCCC1 (centres unmarked) [CBK028032]	67.6368
Fc1ccc(OCCN2CCC3(C2)OCCc2c3[nH]c3ccccc23)cc1 (centres unmarked) [CBK061787]	63.9495
COc1ccc(Nc2ncnc3c2c(C)c(C)n3CCO)cc1 [CBK288161]	62.6496
Cn1cc(-c2nccnc2OCCn2cccc2)cn1 [CBK107079]	102.824
O=C(NCCO)C1CCCN(S(=O)(=O)c2ccc3ccccc3c2)C1 (centres unmarked) [CBK270090]	92.4579
CCN1CC2(CCC1=O)CCN(Cc1cccc(C(C)N(C)C)c1)CC2 (centres unmarked) [CBK307250]	67.7788
CN(Cc1nc2c(s1)CCCC2)C(=O)COc1ccc2nncn2n1 [CBK306758]	88.9036
COc1ccc2c(-c3ccccc3)cc(=O)n(CCS(=O)(=O)Oc3ccccc3)c2c1 [CBK296621]	118.14
O=C(O)CCc1ccc(-c2ccc(F)cc2)n1Cc1ccco1 [CBK265953]	77.6296
Cc1ccc(-c2nc3ncccc3o2)cc1NC(=O)c1ccc(F)cc1 [CBK263043]	100.064
COc1ccc(NC(=O)CSc2cnn[nH]2)cc1OC [CBK270010]	85.6318
O=C(NC(c1ccc2c(c1)CCO2)[C@H]1C[C@@H](O)C1)c1c[nH]c(=O)c(Cl)c1 (some centres unmarked) [CBK306634]	92.9645
CCC(C)(NC(=O)c1ccn(-c2cc(C)ccc2OC)n1)C(=O)OC (centres unmarked) [CBK305282]	71.4372
CCC(=O)NC1Cc2cccc3c2N(CCC3)C1=O (centres unmarked) [CBK010667]	76.609
Clc1cccc(Nc2nc(Br)cn3ccnc23)c1 [CBK066260]	94.602
CSCCC(=O)N1CCN(c2ncccn2)CC1 [CBK144509]	93.9783
Clc1ccccc1OCCNC1CCc2[nH]c3ccccc3c2C1 (centres unmarked) [CBK107790]	73.8129
COc1ccccc1OCc1cc(C)c(C(=O)N2CCN(C)CC2c2ccccc2)o1 (centres unmarked) [CBK286273]	114.705
COc1ccc2c(c1)OC1(CCN(C(=O)C3CCCC3)CC1)CC2O (centres unmarked) [CBK286400]	112.863
CCC(CC)C(=O)N1CCN(Cc2ccccc2)CCC1=O [CBK284830]	90.7195
COc1ccc(C2C(C(=O)c3ccccc3)=C(O)C(=O)N2CCN(C)C)cc1OC (centres unmarked) [CBK263352]	93.6853
O=C(CN1C(=O)COc2ccccc21)NC1CC1 [CBK270261]	105.226
Cc1cccc(/C=C2/SC(=S)N(CC(=O)O)C2=O)n1 [CBK265146]	78.4002
O=C(O)CC(NC(=O)C(c1ccccc1)c1ccccc1)c1ccco1 (centres unmarked) [CBK268729]	119.775
COc1ccccc1N1CCN(C2CCN(Cc3ccc([N+](=O)[O-])cc3)CC2)CC1 [CBK264734G]	89.5331
